Results: PubChem BioAssay AID540317 (National Center for Advancing Translational Sciences (NCATS), 2011)
“And” between values parts separate entries of the source, which are not always exact repeats. Identical values can stand only once. Screen size: about 390,000 compounds; about 2,200 (0.56%) were called active. The inconclusive results got no clear call from the source; some entries with a clear call stand among them for comparison. The call rests on the fitted dose curve; in most records, active means well fitted inhibition curve with a large enough effect; inconclusive means small, poorly fitted or top-dose-only effect; inactive means no such curve, though single readings can be large or run the other way. A potency beside an inconclusive call is a rough fit, not a confirmed value.

molecular target: Chromobox protein homolog 1 (Homo sapiens) (UniProt P83916); assay: HTS for Inhibitors of HP1-beta Chromodomain Interactions with Methylated Histone Tails; settings: AlphaScreen HP1-beta / biotin-H3K9me3 peptide binding; series mostly up to 114 µM; activity change, negative = inhibition: at the top concentration; further: nearly all actives have a fitted effect of over 70% in size
Sequence of UniProt P83916 (P83916 whole entry, looked up): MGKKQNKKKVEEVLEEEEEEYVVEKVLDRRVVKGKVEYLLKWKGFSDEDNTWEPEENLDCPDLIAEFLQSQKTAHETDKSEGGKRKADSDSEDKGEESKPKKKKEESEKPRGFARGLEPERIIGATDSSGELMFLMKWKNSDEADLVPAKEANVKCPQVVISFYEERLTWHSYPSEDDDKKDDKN
Method in brief: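 Compound inhibition of the preformed complex between 50 nM HP1-beta and 50 nM biotinylated H3K9me3 peptide was read by AlphaScreen. Buffer was PBS pH 7.4 with 0.01% Tween-20. Incubations ran 30 min at room temperature, with 10 ug/mL donor/acceptor beads.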
Potency means the concentration at half of the fitted maximal effect; tags describe the fitted curve by direction and shape.

| Structure (SMILES) | Potency | activity change, negative = inhibition |
| --- | --- | --- |
| O=C(c1cccc2ccccc12)C1CCCN(C2CCC2)C1 (stereo not given) | inconclusive: 25.1 µM [inhibitor, full curve] | – |
| c1cc2n(c1)-c1c(ccc3c1OCO3)CNC2c1ccc2c(c1)OCO2 (stereo not given) | inconclusive: 56.2 µM [inhibitor, single point] | – |
| C=C(C)[C@H]1CN[C@H](C(=O)O)[C@H]1CC(=O)O | inconclusive: 14.1 µM [inhibitor, full curve] | – |
| O=c1[nH]c(N2CCN(Cc3ccc4c(c3)OCO4)CC2)nc2c1CCC2 | – | inactive: 39.8% |
| Cc1ccc(CN2CCN(Cc3ccccc3F)CC2)cc1 | inconclusive: 14.1 µM [inhibitor, partial curve, poor fit] | – |
| O=C1/C(=C/c2ccncc2)N2CCC1CC2 | – | inactive: 49.5% |
| CN1CCN(CC#CCOc2ccc(Cl)cc2)CC1 | inconclusive: 15.8 µM [inhibitor, full curve, poor fit] | – |
| CCN(CCCNS(=O)(=O)c1ccc2c(c1)oc(=O)n2C)c1cccc(C)c1 | inconclusive: 17.8 µM [inhibitor, full curve] | – |
| CCCCCCCSc1cc(OC)c(CCNC)cc1OC | inconclusive: 31.6 µM [inhibitor, partial curve] | – |
| CCCCN1C(=O)C(C2c3ccccc3C(=O)N2Cc2ccccc2)C(=O)NC1=S (stereo not given) | inconclusive: 39.8 µM [inhibitor, single point] | – |
| O=C1NC(=O)N(CCNc2ncc(C(F)(F)F)cc2Cl)C(=O)C1Cc1ccc(Cl)cc1 (stereo not given) | – | inactive: 20.5% |
| Ic1ccccc1CN[C@@H]1C2CCN(CC2)[C@@H]1C(c1ccccc1)c1ccccc1 | inconclusive: 8.91 µM [inhibitor, full curve] | – |
| CCCCN1C(=O)/C(=C\c2ccco2)C(=O)N(CCc2ccccc2)C1=O | inconclusive: 15.8 µM [inhibitor, full curve, poor fit] | – |
| Nc1c2c(nc3ccccc13)CCN(Cc1ccccc1)C2 | – | inactive: 7.11% |
| Nc1ccc(N=Nc2ccccc2)cc1 | inconclusive: 22.4 µM [inhibitor, full curve] | – |
| CCCN(CC1CC1)CC(O)c1ccccc1 (stereo not given) | inconclusive: 79.4 µM [inhibitor, single point] | – |
| O=C1NC(=O)N(Cc2ccco2)C(=O)/C1=C/c1ccc(-c2cccc([N+](=O)[O-])c2)o1 | inconclusive: 20 µM [inhibitor, full curve] | – |
| COc1ccccc1C=C1C(=O)NC(=S)NC1=O | inconclusive: 79.4 µM [inhibitor, single point] | – |
| CCOc1cccc(=NC2CCCCC2)c2c(C)n(C)c(C)c12 | inconclusive: 70.8 µM [inhibitor, partial curve] | – |
| CCN(CC)S(=O)(=O)c1ccc(NN=C(C#N)C#N)cc1 | inconclusive: 35.5 µM [inhibitor, partial curve] | – |
| CC1Oc2cc3c(-c4c(O)cc(O)c5c(O)c6c(cc45)OC(C)C(C)C6=O)c(O)cc(O)c3c(O)c2C(=O)C1C (stereo not given) | inconclusive: 25.1 µM [inhibitor, full curve] | – |
| CCS(=O)(=O)N1CCN(C2CCC(C)CC2)CC1 (stereo not given) | inconclusive: 70.8 µM [inhibitor, single point] | – |

| Structure (SMILES) | Potency | activity change, negative = inhibition |
| --- | --- | --- |
| O=c1c2ccccc2nc(/C=C/c2ccccc2)n1-c1ccccc1F | – | inactive: 21.6% |
| Cc1cccc(N2CCc3c2nc2ccccc2c3N)c1 | inconclusive: 56.2 µM [inhibitor, partial curve, poor fit] | – |
| Cc1[nH]n(-c2ccccc2)c(=O)c1C(c1ccc([N+](=O)[O-])cc1)c1c(C)[nH]n(-c2ccccc2)c1=O | active: 35.5 µM | – |
| COc1cc(/C=C/[N+](=O)[O-])ccc1O | inconclusive: 25.1 µM [inhibitor, full curve] | – |
| CN1C(=O)NC(=O)/C(=C\C=C\c2ccccc2[N+](=O)[O-])C1=O | inconclusive: 8.91 µM [inhibitor, full curve] | – |
| O=c1[nH]c(=S)[nH]c(O)c1N=Nc1cc(S(=O)(=O)Nc2ccc(Cl)cc2)ccc1Cl | active: 39.8 µM | – |
| CCOc1cc2c(cc1OCC)-n1cccc1C(c1cccc(F)c1F)NC2 (stereo not given) | inconclusive: 44.7 µM [inhibitor, partial curve] | – |
| O=C1N=NC2=C1c1c3ccccc3c(O)n1CC2 | inconclusive: 89.1 µM [inhibitor, single point] | – |
| COc1ccc(CN2C(=O)NC(=O)/C(=C\c3ccco3)C2=O)cc1 | inconclusive: 39.8 µM [inhibitor, single point] | – |
| CN1CCC(n2nccc2N)CC1 | – | inactive: 23.3% |
| O=C(COc1ccccc1)N1CCN(CC2CC3C=CC2C3)CC1 (stereo not given) | inconclusive: 50.1 µM [inhibitor, partial curve] | – |
| CCOc1ccc(OCC)c(NC(=O)CN2CCN(c3ccc(C)cc3C)CC2)c1 | inconclusive: 14.1 µM [inhibitor, full curve] | – |
| CCC1(C)CC(CCNCc2ccc(N(C)C)cc2)(c2ccc(F)cc2)CCO1 (stereo not given) | inconclusive: 39.8 µM [inhibitor, partial curve] | – |
| COc1ccc(CCNCC2CCCO2)cc1 (stereo not given) | inconclusive: 44.7 µM [inhibitor, partial curve] | – |
| Fc1ccccc1N1CCN(Cc2ccc3c(c2)OCO3)CC1 | inconclusive: 44.7 µM [inhibitor, partial curve, poor fit] | – |
| CC(Oc1ccc(Cl)cc1Cl)C(=O)Nc1ccc(S(=O)(=O)Nc2cnc3ccccc3n2)cc1 (stereo not given) | inconclusive: 31.6 µM [inhibitor, full curve] | – |
| COc1ccc(O)c(CN2CCCC(C(=O)c3ccccc3SC)C2)c1 (stereo not given) | inconclusive: 50.1 µM [inhibitor, partial curve, poor fit] | – |
| CN1CCN(c2oc(-c3ccc(COc4ccccc4)o3)nc2C#N)CC1 | inconclusive: 28.2 µM [inhibitor, partial curve, poor fit] | – |
| Nc1ccc2c(c1)Cc1ccccc1-2 | inconclusive: 70.8 µM [inhibitor, partial curve] | – |
| CN(C)c1ccc(NC(=O)CN2C(=O)CN=C(c3ccccc3)c3ccccc32)cc1 | inconclusive: 39.8 µM [inhibitor, full curve] | – |
| COc1ccc(NC2Oc3cc4c(cc3C(c3cc(OC)c(OC)c(OC)c3)C2C)OCO4)cc1 (stereo not given) | inconclusive: 56.2 µM [inhibitor, partial curve, poor fit] | – |
| O=c1[nH]sc2cc(F)ccc12 | inconclusive: 15.8 µM [inhibitor, partial curve, poor fit] | – |

| Structure (SMILES) | Potency | activity change, negative = inhibition |
| --- | --- | --- |
| O=C1NC(=O)N(c2ccc3c(c2)OCO3)C(=O)/C1=C\c1ccc(-c2ccccc2C(=O)O)o1 | inconclusive: 56.2 µM [inhibitor, partial curve, poor fit] | – |
| COC1CCCCC1NCCc1ccccc1 (stereo not given) | inconclusive: 50.1 µM [inhibitor, partial curve, poor fit] | – |
| Cc1cccc(OCC(=O)N2CCN(Cc3cccnc3)CC2)c1 | inconclusive: 20 µM [inhibitor, full curve] | – |
| Cc1ccc(N)c(C(=O)c2ccc(Br)cc2)c1 | inconclusive: 25.1 µM [inhibitor, full curve] | – |
| Cc1ccccc1-n1c(CNc2ccccc2)nc2ccccc2c1=O | – | inactive: 32.7% |
| Oc1ccc(/C=N/NP(=S)(c2ccccc2)c2ccccc2)cc1 | inconclusive: 20 µM [inhibitor, full curve] | – |
| C=CCN1C(=O)/C(=C/c2ccc3c(c2)CCCN3CCC)C(=O)NC1=S | inconclusive: 70.8 µM [inhibitor, partial curve] | – |
| N#CC(C#N)=NNc1ccc(S(N)(=O)=O)cc1 | active: 35.5 µM | – |
| S=c1[nH]nc(Cn2c(-c3ccccn3)nc3ccccc32)n1-c1ccc2c(c1)OCCO2 | inconclusive: 89.1 µM [inhibitor, partial curve, poor fit] | – |
| COc1ccc(CN2CCN(C(=O)COc3ccc4ccccc4c3)CC2)c(OC)c1 | inconclusive: 15.8 µM [inhibitor, full curve] | – |
| CNc1ccc2nc3ccccc3[n+](C)c2c1 | inconclusive: 14.1 µM [inhibitor, full curve] | – |
| O=C(Cc1ccccc1)N1CCN(CCCc2ccccc2)CC1 | inconclusive: 56.2 µM [inhibitor, partial curve, poor fit] | – |
| COc1cccc(N2C(=O)NC(=O)/C(=C/c3ccc4c(c3)Cc3ccccc3-4)C2=O)c1 | – | inactive: 43% |
| CCOc1ccc(-n2c(O)c(N=Nc3c(C)n(C)n(-c4ccccc4)c3=O)c(=O)[nH]c2=O)cc1 | – | inactive: 30.5% |
| Cn1cccc1/C=C1\C(=O)NC(=O)N(Cc2ccccc2)C1=O | inconclusive: 44.7 µM [inhibitor, partial curve] | – |
| O=[N+]([O-])c1ccc(N2CCCCCC2)c2ncccc12 | inconclusive: 14.1 µM [inhibitor, partial curve, poor fit] | – |
| COc1cc(OC)c(OC)cc1CN1CCc2nc(N3CCN(c4ccccc4F)CC3)ncc2C1 | inconclusive: 35.5 µM [inhibitor, partial curve, poor fit] | – |
| COc1ccc(OC)c(CN2CCN(C(=O)COc3cccc(C)c3)CC2)c1 | inconclusive: 17.8 µM [inhibitor, full curve, poor fit] | – |
| N[C@@H](Cc1cc(I)c(O)c(I)c1)C(=O)O | inconclusive: 15.8 µM [inhibitor, full curve, poor fit] and inconclusive: 56.2 µM [inhibitor, partial curve, poor fit] | – |
| CCc1ccc(CNCCc2c[nH]c3ccccc23)cc1 | inconclusive: 25.1 µM [inhibitor, partial curve] | – |
| O=C1NC(=S)NC(=O)C1c1ccccc1 | inconclusive: 56.2 µM [inhibitor, partial curve, poor fit] | – |
